Laboratory results reported in PMC6919601, “Identification of Plasmodium dipeptidyl aminopeptidase allosteric inhibitors by high throughput screening” (PLoS ONE, 2019).
About 230 (0.21%) of roughly 110,000 compounds showed an effect of 50% or more. The list shows a part of the results.

Each compound was assayed against DPAP1 (Plasmodium falciparum, UniProt Q8IIJ9) (assay: primary screen, percent inhibition; read by cleavage of a fluorogenic dipeptide substrate; higher = more effect of the substance).
Chain of DPAP1 (Q8IIJ9 whole entry, looked up): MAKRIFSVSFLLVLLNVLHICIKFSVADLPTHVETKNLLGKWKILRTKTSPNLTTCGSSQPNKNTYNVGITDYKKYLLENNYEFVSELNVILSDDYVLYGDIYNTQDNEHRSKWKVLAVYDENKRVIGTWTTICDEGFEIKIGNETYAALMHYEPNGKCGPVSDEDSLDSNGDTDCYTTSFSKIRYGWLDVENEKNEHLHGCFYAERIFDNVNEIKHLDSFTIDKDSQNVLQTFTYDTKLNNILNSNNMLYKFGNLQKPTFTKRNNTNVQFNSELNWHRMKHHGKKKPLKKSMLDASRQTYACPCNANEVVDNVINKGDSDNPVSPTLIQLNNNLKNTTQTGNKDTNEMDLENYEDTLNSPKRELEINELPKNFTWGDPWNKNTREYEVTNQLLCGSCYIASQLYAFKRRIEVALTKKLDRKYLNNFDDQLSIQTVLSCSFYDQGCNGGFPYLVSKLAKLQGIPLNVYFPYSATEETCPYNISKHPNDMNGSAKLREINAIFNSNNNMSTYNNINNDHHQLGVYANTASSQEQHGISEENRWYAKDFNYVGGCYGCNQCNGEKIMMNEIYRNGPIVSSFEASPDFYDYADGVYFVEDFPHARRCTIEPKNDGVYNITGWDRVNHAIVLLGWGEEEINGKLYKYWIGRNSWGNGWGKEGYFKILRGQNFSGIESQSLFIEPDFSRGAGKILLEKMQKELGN
Parameters: species or system P. falciparum D10 trophozoite lysates; single well
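Further: 30 min substrate incubation versus DMSO and 10 µM JCP410 controls.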

Compared with Cn1c(SCc2nc(-c3cccs3)no2)nnc1-c1ccncc1, Cc1nnc2c(Sc3nc4ccccc4s3)nc3ccccc3n12 is higher in “% Inhibition @ 10 uM” value: -4.02% for the first, -1.68% for the second.

First: CCN(CC)CCOc1ccc(Br)cc1
Second: CCOC(=O)c1[nH]c2c(c1C)C(=O)CC(c1ccc(OCC)cc1)C2 (stereo not drawn)
The “% Inhibition @ 10 uM” value of the first is lower: -0.414% for the first, 2.57% for the second.

First: CCc1nc2ccc(C(=O)NC3CCCc4ccccc43)cc2nc1CC (stereo not drawn)
Second: O=C(NCC1CCCO1)c1c(O)nnc(-c2ccccc2)c1-c1ccccc1 (stereo not drawn)
The “% Inhibition @ 10 uM” value of the first is higher: 1.95% for the first, -1.11% for the second.

Going from C=CCOC(=O)c1cccc(-c2ccc(/C=C3\C(=O)NC(=O)C(C#N)=C3C)o2)c1 to CCc1ccc(/C=C2\Oc3ccc(C(=O)OC)cc3C2=O)cc1, the “% Inhibition @ 10 uM” value falls from 1.96% to -1.37%.

Going from CCN1CCN(Cc2cccc(Cl)c2)CC1 to CC(C)C[C@H](NC(=O)c1cccc(CN2CCN(C)CC2)c1)C(=O)NCC#N, the “% Inhibition @ 10 uM” value falls from -1.92% to -3.97%.

Compared with CCOC(=O)C1=C(N)OC2=C(C(=O)CCC2)C1c1ccc(F)cc1 (stereo not drawn), CCOc1ccc(C(=O)C2=C(O)C(=O)N(CC3CCCO3)C2c2ccc(Cl)cc2)cc1 (stereo not drawn) is lower in “% Inhibition @ 10 uM” value: -0.771% for the first, -5.46% for the second.

Going from Cc1nn(CC(=O)N2CCC(N3CCCCC3)CC2)c(=O)c2cccn12 to CCCN1CCN(C(=O)C2CCCN(c3nc4ccc(OCC)cc4s3)C2)CC1 (stereo not drawn), the “% Inhibition @ 10 uM” value rises from -2.94% to 3.4%.

First: COC(=O)c1ccc(-c2ccncc2)s1
Second: O=C(Nc1cccc(Cl)c1)c1cccs1
The “% Inhibition @ 10 uM” value of the first is lower: -2.39% for the first, 1.48% for the second.

Going from O=C(CN1CCOCC1)C12CC3CC(CC(C3)C1)C2 to Cc1cc(OCC(=O)NC2C3CC4CC(C3)CC2C4)ccc1Cl (stereo not drawn), the “% Inhibition @ 10 uM” value rises from -6.2% to 2.98%.

Compared with COc1ccc(C2C(C(=O)Nc3cccnc3)=C(C)Nc3ncnn32)cc1 (stereo not drawn), COc1ccc(CNC(=O)OCc2nccnc2C(=O)Nc2ccc(Br)cn2)cc1 is higher in “% Inhibition @ 10 uM” value: -18.8% for the first, -1.3% for the second.

Going from CCCS(=O)(=O)c1c(S(=O)(=O)CCC)c2cnccn2c1C(=O)c1ccc(C)cc1C to COc1cc(S(=O)(=O)n2nc(C)c(C(C)=O)c2C)ccc1F, the “% Inhibition @ 10 uM” value falls from 1.34% to -0.189%.

Going from Cc1ccc(-c2[nH]nc3nc(-c4ccc(O)c(O)c4)cc(C(=O)O)c23)cc1 to Cc1ccc(OCC(=O)Nc2ccc(C)cc2C)cc1, the “% Inhibition @ 10 uM” value rises from -5.33% to 5.69%.

Going from CCOC(=O)c1sc(N2N=C(C)/C(=C\c3cc(C)n(-c4ccc5c(c4)OCO5)c3C)C2=O)nc1C to CCn1c(SCC(=O)NCc2ccc3c(c2)OCO3)nc2c(c1=O)SCC2, the “% Inhibition @ 10 uM” value rises from 0.884% to 1.97%.

Compared with COC(=O)C1=C(C)c2cc3c(cc2C1Cl)OCO3 (stereo not drawn), COc1ccc(-c2cc(C)no2)cc1S(=O)(=O)N1CCN(C(=O)c2ccco2)CC1 is lower in “% Inhibition @ 10 uM” value: 4.61% for the first, 3.41% for the second.

First: O/C(=C\C=N\c1cc(Cl)ccc1O)c1cccs1
Second: O=c1c2ccccc2nc(/C=C/c2cc(Br)ccc2O)n1CCO
The “% Inhibition @ 10 uM” value of the first is lower: 1.35% for the first, 11.4% for the second.

First: CC1CN(C(=O)c2cccs2)C(C)CN1C(=O)c1cccs1 (stereo not drawn)
Second: CN1CCN(C(=O)c2ccc(N)cc2C(=O)O)CC1
The “% Inhibition @ 10 uM” value of the first is higher: -1.61% for the first, -2.76% for the second.

Going from O=C(/N=C1\SC2CS(=O)(=O)CC2N1c1ccc(Cl)cc1)c1ccccc1 (stereo not drawn) to O=C(Nc1cccc2ccccc12)c1ccc(Cl)cc1, the “% Inhibition @ 10 uM” value falls from 0.408% to -1.29%.

Compared with CC(C)(C)NC(=O)c1cccc(NC(=O)CN2C(=O)c3ccccc3C2=O)c1, CC(C)(C)NC(=O)Cn1ncc2c3ccccc3n(Cc3ccccc3F)c2c1=O is higher in “% Inhibition @ 10 uM” value: -1.36% for the first, 0.137% for the second.

Compared with N#CC1(NC(=O)[C@H](Cc2cc(Cl)c(O)c(Cl)c2)NC(=O)c2ccc(Br)cc2)CC1, CCN(c1ccccc1)S(=O)(=O)c1ccc(NC(=O)c2ccc(Cl)cc2)cc1 is lower in “% Inhibition @ 10 uM” value: -1.41% for the first, -5.6% for the second.

Compared with N#Cc1ccc(Oc2ccc3ccccc3c2)cc1C#N, COc1ccc(-c2nc3s/c(=C\c4ccco4)c(=O)n3n2)cc1 is higher in “% Inhibition @ 10 uM” value: -4.96% for the first, 0.487% for the second.

First: Cc1ccccc1CSc1ncc(Cl)c(C(=O)NCCc2ccc(S(N)(=O)=O)cc2)n1
Second: CCC1CCCCN1S(=O)(=O)c1ccc2nc(O)cc(C(=O)NCCc3ccc(C)cc3)c2c1 (stereo not drawn)
The “% Inhibition @ 10 uM” value of the first is higher: 0.758% for the first, 0.387% for the second.

Going from CCN(C(=O)CC(C)C)c1nc(-c2ccc(C)cc2)cs1 to CCOc1ccc(-c2c(C)nn3c(O)c(N4CCc5ccccc5C4)c(C)nc23)cc1OCC, the “% Inhibition @ 10 uM” value falls from 4.86% to -0.72%.

First: CCCCCCOC(=O)c1ccccc1NC(=O)/C=C/C(=O)O
Second: Cc1ccc(NC(=O)c2ccccc2NC(=O)C2CCCCC2C(=O)O)cc1 (stereo not drawn)
The “% Inhibition @ 10 uM” value of the first is lower: -8.75% for the first, -0.95% for the second.

Compared with N=c1c2c3c(sc2ncn1CCO)CCCCC3, Cc1ccccc1C1NC(=O)c2c(sc3c2CCN(C)C3)N1 (stereo not drawn) is lower in “% Inhibition @ 10 uM” value: 27.5% for the first, -3.96% for the second.

Compared with O=C1C(CCNc2ccccc2)C=NN1c1ccccc1 (stereo not drawn), Nc1cc(O)nc(N(Cc2ccccc2)Cc2ccccc2)n1 is higher in “% Inhibition @ 10 uM” value: 1.7% for the first, 2.4% for the second.

Going from OCCNc1c2ccccc2nc2c(F)c(F)c(F)c(F)c12 to Cc1nn(CC(=O)NCc2cccc(Cl)c2)c(=O)c2nn(-c3ccccc3)c(C)c12, the “% Inhibition @ 10 uM” value falls from 2.46% to -2.68%.

First: Cc1cc2c(c(=O)o1)C(c1ccoc1)C(C#N)=C(N)O2 (stereo not drawn)
Second: CCc1c(C#N)c(SCC(=O)Nc2cccc(C(C)=O)c2)nc2c1C(=O)CC(C)(C)C2
The “% Inhibition @ 10 uM” value of the first is lower: 1.4% for the first, 8.15% for the second.

Going from COc1ccc(OC)c(CNS(=O)(=O)c2cc(-c3cc(C)no3)ccc2OC)c1 to COc1cccc(CNC(=O)NCc2cccn2Cc2ccccc2)c1, the “% Inhibition @ 10 uM” value falls from -1.34% to -3.15%.

First: CCOC(=O)NCCN1C(=O)C2C3C=CC(C3)C2C1=O (stereo not drawn)
Second: Cc1cccc(C)c1OCCNC(=O)OCc1ccccc1
The “% Inhibition @ 10 uM” value of the first is higher: -2.98% for the first, -4.15% for the second.

Compared with COCCn1c(SCC(=O)Nc2nnc(C)s2)nnc1-c1c[nH]c2ccccc12, CCOc1cccc2cc(-c3csc(NC(=O)CCC(=O)N4CCN(C)CC4)n3)c(=O)oc12 is higher in “% Inhibition @ 10 uM” value: -1.3% for the first, 3.21% for the second.

First: CC1(C)CC(=O)C2=C(C1)N(Cc1ccccc1)C(=O)C2(NC(=O)CCC1CCCCC1)C(F)(F)F (stereo not drawn)
Second: CC(NCC(O)Cn1nnnc1-c1ccccc1)c1ccccc1 (stereo not drawn)
The “% Inhibition @ 10 uM” value of the first is lower: -1.52% for the first, 2.5% for the second.

With Oc1ccccc1-c1nc(/C=C/c2cccnc2)no1 the “% Inhibition @ 10 uM” value was -3.53%.
